Reference: PubChem BioAssay AID2675 (National Center for Advancing Translational Sciences (NCATS), 2010)
In all, about 280,000 compounds went through this assay and about 100 (0.036%) were called active. Inconclusive means that the source gave no clear call. Such entries were picked first, then a sample of the others. Calls follow the shape of the dose curve; as a rule, active = well fitted inhibition curve with a large enough effect in the signal ratio, with a control signal flat (not every such curve was filed as active); inconclusive = small, poorly fitted or top-dose-only effect, or effect the other way, or a change in a side signal; inactive = no such curve, though single readings can be large or run the other way; the % refers to the signal ratio. Where the call is inconclusive, the potency comes from a doubtful curve fit. “Side channel” marks fits to a control or component signal instead of the main read-out. Starred links: 1 amine or outer side, 2 acyl side, 3 side chain; linkers in the order of their positions; H or OH if unused. Positions of bridges follow the written chain, without caps; N, C: chain ends. Non-standard residues stand in square brackets, D forms with d. Residues, ends and D or L forms follow the SMILES beside them. ξ: configuration not given here. hSer(Ph(2-I,4-NO2,6-CO)) = O=C([C@H](CCOc1c(I)cc([N+](=O)[O-])cc1C(=O)[*:3])N[*:1])[*:2]; ξD = NC(CC(=O)O)C(=O)O

Target: Muscleblind-like protein 1 (Homo sapiens) (UniProt Q9NR56)
Chain of UniProt Q9NR56 (Q9NR56 whole entry, looked up): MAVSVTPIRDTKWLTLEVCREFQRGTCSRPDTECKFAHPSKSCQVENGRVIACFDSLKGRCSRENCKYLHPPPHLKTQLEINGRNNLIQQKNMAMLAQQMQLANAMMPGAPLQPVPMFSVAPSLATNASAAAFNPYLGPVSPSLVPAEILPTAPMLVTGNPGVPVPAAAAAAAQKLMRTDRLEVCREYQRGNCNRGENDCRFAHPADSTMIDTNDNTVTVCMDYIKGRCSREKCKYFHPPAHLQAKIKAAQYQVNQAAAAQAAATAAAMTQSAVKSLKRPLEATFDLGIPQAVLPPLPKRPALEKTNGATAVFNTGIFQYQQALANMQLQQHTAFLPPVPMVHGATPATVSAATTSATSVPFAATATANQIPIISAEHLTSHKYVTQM
Assay: qHTS Assay for Inhibitors of MBNL1-poly(CUG) RNA binding
Conditions: TR-FRET MBNL1-His/biotin-(CUG)12 binding, 665/545 ratio; activity change, negative = inhibition: at 57.5 µM (top of the series)
Procedure, shortened: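 TR-FRET readout: Ex 340 nm, 665/545 nm emission ratio, normalized to buffer-only (basal) and MBNL1-(CUG)12 controls. Complex of MBNL1-His with Biotin-(CUG)12, compounds 92 nM–58 uM, incubated 60 min at room temperature.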
% is scaled to controls: 0 for no effect and ±100 for the full control effect; potency is read from the fitted curve at half-maximal effect; tags tell the direction and shape of the fitted curve or compound fluorescence and quenching.

Structure (SMILES) | Potency | activity change, negative = inhibition
COc1ccc(C2C=C(c3ccc(Br)cc3)Nc3nc(NS(C)(=O)=O)nn32)cc1 (stereo not drawn) | inconclusive: 0.562 µM [quencher, side channel, full curve, poor fit] | –
CCOc1nc(C)ccc1-c1noc(CC)n1 | inconclusive: 79.4 µM [inhibitor, single point] | –
Nc1nc(N)c2ncc(C(=O)CCc3ccccc3)nc2n1 | inconclusive: 12.6 µM [quencher, side channel, partial curve] | –
COc1cc(/C=C/C(=O)NC(=O)c2ccccc2O)ccc1OC(C)=O | inconclusive: 10 µM [quencher, side channel, partial curve] | –
Cc1ccc(/C=C2/NC(=O)N(c3ccccc3)C2=O)o1 | inconclusive: 39.8 µM [quencher, side channel, single point] | –
CC(=O)c1ccc(Nc2c3c(c(C#N)c4nc5ccccc5n24)CCC3)cc1 | inconclusive: 0.112 µM [fluorescent, side channel, full curve] | –
O=C(CSc1n[nH]c(=O)[nH]c1=O)c1ccc([N+](=O)[O-])cc1 | inconclusive: 4.47 µM [quencher, side channel, partial curve] | –
COc1ccc(Cl)cc1NC(=O)CCNS(=O)(=O)c1cccc2nonc12 | inconclusive: 10 µM [quencher, partial curve] | –
COc1ccc(-c2nnc(NC(=O)Cc3ccccc3)o2)cc1 | – | inactive: 3.61%
O=C(c1ccccc1)c1ccc(-c2ccc(O)cc2)cc1 | – | inactive: 7.45%
N#CC1=C(N)OC2=C(C(=O)CCC2)C1C1CC=CCC1 (stereo not drawn) | inconclusive: 3.55 µM [fluorescent, side channel, partial curve] | –
C=CSc1sc(Cl)c(N(C)C)c1[N+](=O)[O-] | inconclusive: 17.8 µM [quencher, side channel, partial curve] | –
Cc1ccsc1/C=C(\C#N)C(=O)NC1CCS(=O)(=O)C1 (stereo not drawn) | inconclusive: 22.4 µM [quencher, side channel, partial curve] | –
CCc1ccc(NC(=S)Nc2ccc3[nH]c(=O)[nH]c3c2)cc1 | – | inactive: 2.21%
CCn1cnc2c1c(=O)n(Cc1nnc3n1-c1ccccc1SC3)c(=O)n2Cc1ccccc1 | inconclusive: 7.08 µM [quencher, side channel, single point] | –
CCn1c(SCc2ccc([N+](=O)[O-])cc2)nnc1C(C)NC(=O)c1ccc(C)cc1 (stereo not drawn) | inconclusive: 3.55 µM [quencher, side channel, single point] | –
Cn1c(-c2ccccc2)cnc1SCc1nc2ccccc2c(=O)[nH]1 | inconclusive: 28.2 µM [quencher, side channel, single point] | –
COC(=O)CCCC(=O)N1CCCC(C(=O)c2ccc(OC)cc2C)C1 (stereo not drawn) | inconclusive: 6.31 µM [inhibitor, single point] | –
O=S(=O)(c1ccc(NC(=S)N/N=C/c2ccc(N3CCOCC3)cc2)cc1)N1CCOCC1 | – | inactive: 54.8%
Cc1cccc(N(C(=O)C(F)(F)F)C(C(=O)NC2CCCCC2)c2cccs2)c1 (stereo not drawn) | – | inactive: 2.92%

Structure (SMILES) | Potency | activity change, negative = inhibition
Cc1cc(/C=N/Nc2ccc([N+](=O)[O-])cn2)c(C)n1-c1ccc(C(=O)O)cc1 | inconclusive: 14.1 µM [quencher, partial curve] | –
NC(=O)c1cc([N+](=O)[O-])ccc1N1CCN(Cc2ccccc2)CC1 | inconclusive: 14.1 µM [quencher, partial curve] | –
CCC(C)NCCOc1cccc(Br)c1 (stereo not drawn) | – | inactive: -7.84%
Cc1ccc(-n2c(SCC(N)=O)nc3c([nH]c4ccccc43)c2=O)cc1 | inconclusive: 2.24 µM [quencher, side channel, partial curve] | –
O=C(NC(NCc1cccnc1)C(Cl)(Cl)Cl)c1cccc2ccccc12 (stereo not drawn) | inconclusive: 0.316 µM [fluorescent, side channel, full curve] | –
CCOc1cccc2cc(-c3csc(NC(=O)CCC(=O)NCCN4CCCCC4C)n3)c(=O)oc12 (stereo not drawn) | inconclusive: 12.6 µM [quencher, side channel, partial curve] | –
COc1ccc(CCNC(=O)C2CC(=O)N(C3CCCCCCC3)C2)cc1OC (stereo not drawn) | – | inactive: -1.71%
O=C1C(C=NCCCN2CCOCC2)=C(O)c2ccccc21 | inconclusive: 17.8 µM [quencher, side channel, single point] | –
COc1ccccc1NC(=O)Cn1cncc1-c1ccc([N+](=O)[O-])cc1 | inconclusive: 2.82 µM [quencher, single point] | –
O=[N+]([O-])c1ccc(/C=[N+](\[O-])[C@@H]2CCCC[C@@H]2/[N+]([O-])=C/c2ccc([N+](=O)[O-])o2)o1 | inconclusive: 31.6 µM [quencher, side channel, partial curve] | –
CC(=O)Nc1ccc(Oc2cc(NC(C)=O)cc([N+](=O)[O-])c2)cc1 | inconclusive: 10 µM [quencher, partial curve] | –
Cc1ccc(N2C(=O)Nc3ccc(Br)cc3C2(O)C(=O)NCCCN(C)C)cc1C (stereo not drawn) | inconclusive: 44.7 µM [quencher, side channel, single point] | –
COc1cccc(N2CCN(C(c3ccccn3)c3nnnn3C(C)(C)C)CC2)c1 (stereo not drawn) | – | inactive: -18.3%
NC(=O)c1ccsc1NC(=O)c1cc(=O)c2ccccc2o1 | inconclusive: 1.41 µM [quencher, side channel, full curve] | –
COc1ccc2[nH]c(=O)c(-c3noc(-c4ccccc4)n3)cc2c1 | inconclusive: 2.51 µM [quencher, side channel, partial curve] | –
COc1ccc(N/C=C/C(=O)c2cc(OC)c(OC)c(OC)c2)cc1 | inconclusive: 22.4 µM [quencher, side channel, partial curve] | –
COc1cc(N/N=C/c2ccc(N(C)C)cc2)ncn1 | – | inactive: 20.8%
Cc1ccc(C(=O)CC(=O)c2cccc(F)c2)c(O)c1 | – | inactive: 1.76%
Cc1ccc2nc(N3CCN(C)CC3)c(C=O)c(=O)n2c1 | inconclusive: 15.8 µM [quencher, side channel, partial curve] | –
COc1ccc(C(=O)/C=C/Nc2ccc(S(=O)(=O)Nc3nc(C)cc(C)n3)cc2)c(OC)c1 | inconclusive: 22.4 µM [quencher, side channel, partial curve] | –

Structure (SMILES) | Potency | activity change, negative = inhibition
Cc1ccc(-c2nn(-c3ccccc3)cc2C(=O)OCC(=O)Nc2ncc(Cl)cc2Cl)cc1 | inconclusive: 39.8 µM [quencher, side channel, single point] | –
COc1ccc(N2C3=C(CC4=C2CCCC4=O)C(=O)CCC3)cc1 | inconclusive: 22.4 µM [quencher, side channel, single point] | –
COc1ccc(N2CC(C(=O)NCCc3ccc(Cl)cc3)CC2=O)cc1 (stereo not drawn) | – | inactive: -0.74%
CN(C)c1ccc(C(C(=O)NC2CCCC2)N(Cc2cccnc2)C(=O)c2snc(C(N)=O)c2N)cc1 (stereo not drawn) | inconclusive: 12.6 µM [quencher, side channel, partial curve] | –
N=c1c(C(=O)NC2CCCCC2)cc2c(=O)n3ccccc3nc2n1CCc1ccccc1 | inconclusive: 35.5 µM [quencher, side channel, single point] | –
O=C(NC1CCCCC1)Oc1cccc2ccccc12 | – | inactive: -3.18%
COc1ccc(C(=O)/C=C/Nc2cc(C)ccn2)cc1 | inconclusive: 17.8 µM [quencher, side channel, partial curve] | –
O=[N+]([O-])c1cc(S(=O)(=O)Nc2ccccc2)ccc1NCc1cccnc1 | inconclusive: 15.8 µM [quencher, side channel, partial curve] | –
Cc1cccc(N2C(=O)CC(Sc3ccccc3C(=O)O)C2=O)c1 (stereo not drawn) | inconclusive: 28.2 µM [fluorescent, side channel, partial curve, poor fit] | –
COc1ccc2cc(-c3[nH]ncc3CN3CCCC3c3nonc3C)ccc2c1 (stereo not drawn) | inconclusive: 15.8 µM [quencher, side channel, single point] | –
O=c1[nH]c2c(s1)C=Nc1ccccc1N2 | inconclusive: 39.8 µM [quencher, side channel, single point] | –
O=[N+]([O-])c1ccc(N2CCOCC2)c(S(=O)(=O)N2CCOCC2)c1 | inconclusive: 14.1 µM [quencher, side channel, partial curve] | –
c1ccc(CN2C3=NCCCN3c3ccccc32)cc1 | – | inactive: -9.24%
NC(=O)CC1NC(=O)c2cc([N+](=O)[O-])cc(I)c2OCCC(C(N)=O)NC(=O)[C@@H]2CCCN2C1=O (stereo partly drawn) | inconclusive: 28.2 µM [quencher, side channel, partial curve] | –
O=[N+]([O-])c1ccc(N2CCN(C(=S)NC3CCCCC3)CC2)cc1 | inconclusive: 12.6 µM [quencher, side channel, partial curve] | –
COc1cc2c(N3CCOCC3)cc(O)c(CC(=O)Nc3ccccc3)c2cc1OC | inconclusive: 0.141 µM [quencher, side channel, full curve, poor fit] | –
C[C@@H]1NC(=O)[C@H](CCCN=C(N)N)NC(=O)c2cc([N+](=O)[O-])cc(I)c2OCC[C@@H](C(=O)NC(CC(=O)O)C(N)=O)NC1=O (stereo partly drawn) (RA[hSer(Ph(2-I,4-NO2,6-CO))][ξD]-NH2; lactam N-3) | inconclusive: 20 µM [quencher, side channel, partial curve] | –
Nn1c(SCc2cc([N+](=O)[O-])cc3c2OCOC3)nnc1-c1cccnc1 | inconclusive: 8.91 µM [quencher, side channel, partial curve] | –
